Source: patent US12043670B2, “Anti-BCMA antibody-drug conjugates and methods of use” (Eisai R&D Management Co., Ltd., priority 2020, dated 2024)

Assay: ThermoFluor thermostability (Tm)
Assay type: physicochemical
Settings: Fab fragment
[1] = light chain clone paired with heavy chain AB200_R1_VH32
[2] = heavy chain clone paired with light chain AB200-(2Vk30)

Molecule	Tm [1]	Tm [2]
AB200-R1H32-R2Vk15 (antibody) heavy: QVQLVQSGAEVKKPGSSVKVSCKASGGTFSNYWMHWVRQAPGQGLEWMGATYRSHSDTYYNQKFKSRVTITADKSTSTAYMELSSLRSEDTAVYYCARGAIYHGYDVIDNWGQGTLVTVSSASTKGPSVFPLAPSSKSTSGGTAALGCLVKDYFPEPVTVSWNSGALTSGVHTFPAVLQSSGLYSLSSVVTVPSSSLGTQTYICNVNHKPSNTKVDKKVEPKSC light: DIQMTQSPSSLSASVGDRVTITCRASQSISSYINWYQQKPGKAPKLLIYAASSLQSGVPSRFSGSGSGTDFTLTISSLQPEDFATYYCQQYRRIPWTFGQGTKLEIKRTVAAPSVFIFPPSDEQLKSGTASVVCLLNNFYPREAKVQWKVDNALQSGNSQESVTEQDSKDSTYSLSSTLTLSKADYEKHKVYACEVTHQGLSSPVTKSFNRGEC	77.827 °C	–
AB200-R1H32-R2Vk16 (antibody) heavy: QVQLVQSGAEVKKPGSSVKVSCKASGGTFSNYWMHWVRQAPGQGLEWMGATYRSHSDTYYNQKFKSRVTITADKSTSTAYMELSSLRSEDTAVYYCARGAIYHGYDVIDNWGQGTLVTVSSASTKGPSVFPLAPSSKSTSGGTAALGCLVKDYFPEPVTVSWNSGALTSGVHTFPAVLQSSGLYSLSSVVTVPSSSLGTQTYICNVNHKPSNTKVDKKVEPKSC light: DIQMTQSPSSLSASVGDRVTITCRASQSISSYINWYQQKPGKAPKLLIYAASSLQSGVPSRFSGSGSGTDFTLTISSLQPEDFATYYCQQFRRLPWTFGQGTKLEIKRTVAAPSVFIFPPSDEQLKSGTASVVCLLNNFYPREAKVQWKVDNALQSGNSQESVTEQDSKDSTYSLSSTLTLSKADYEKHKVYACEVTHQGLSSPVTKSFNRGEC	80.595 °C	–
AB200-(2Vk30)_R2-VH-v10 (antibody) heavy: QVQLVQSGAEVKKPGSSVKVSCKASGGTYSNYWIHWVRQAPGQGLEWMGATYRSHSDTNYNQKYKSRVTITADKSTSTAYMELSSLRSEDTAVYYCARGAIYHGYDVIENWGQGTLVTVSSASTKGPSVFPLAPSSKSTSGGTAALGCLVKDYFPEPVTVSWNSGALTSGVHTFPAVLQSSGLYSLSSVVTVPSSSLGTQTYICNVNHKPSNTKVDKKVEPKSC light: DIQMTQSPSSLSASVGDRVTITCRASQSISSYLNWYQQKPGKAPKLLIYATSNLQIGVPSRFSGSGSGTDFTLTISSLQPEDFATYYCQQYRRIPWTFGQGTKLEIKRTVAAPSVFIFPPSDEQLKSGTASVVCLLNNFYPREAKVQWKVDNALQSGNSQESVTEQDSKDSTYSLSSTLTLSKADYEKHKVYACEVTHQGLSSPVTKSFNRGEC	–	77.313 °C
AB200-(2Vk30)_R2-VH-v71 (antibody) heavy: QVQLVQSGAEVKKPGSSVKVSCKASGGTFSNYWIHWVRQAPGQGLEWMGATYRIHSDTNYNEKFKSRVTITADKSTSTAYMELSSLRSEDTAVYYCARGAIFHGYDVIDNWGQGTLVTVSSASTKGPSVFPLAPSSKSTSGGTAALGCLVKDYFPEPVTVSWNSGALTSGVHTFPAVLQSSGLYSLSSVVTVPSSSLGTQTYICNVNHKPSNTKVDKKVEPKSC light: DIQMTQSPSSLSASVGDRVTITCRASQSISSYLNWYQQKPGKAPKLLIYATSNLQIGVPSRFSGSGSGTDFTLTISSLQPEDFATYYCQQYRRIPWTFGQGTKLEIKRTVAAPSVFIFPPSDEQLKSGTASVVCLLNNFYPREAKVQWKVDNALQSGNSQESVTEQDSKDSTYSLSSTLTLSKADYEKHKVYACEVTHQGLSSPVTKSFNRGEC	–	77.820 °C
AB200-(2Vk30)_R2-VH-v74 (antibody) heavy: QVQLVQSGAEVKKPGSSVKVSCKASGGTFSNYWIHWVRQAPGQGLEWMGATYRIHSDTYYAEKFKSRVTITADKSTSTAYMELSSLRSEDTAVYYCARGAIYHGFDVIDNWGQGTLVTVSSASTKGPSVFPLAPSSKSTSGGTAALGCLVKDYFPEPVTVSWNSGALTSGVHTFPAVLQSSGLYSLSSVVTVPSSSLGTQTYICNVNHKPSNTKVDKKVEPKSC light: DIQMTQSPSSLSASVGDRVTITCRASQSISSYLNWYQQKPGKAPKLLIYATSNLQIGVPSRFSGSGSGTDFTLTISSLQPEDFATYYCQQYRRIPWTFGQGTKLEIKRTVAAPSVFIFPPSDEQLKSGTASVVCLLNNFYPREAKVQWKVDNALQSGNSQESVTEQDSKDSTYSLSSTLTLSKADYEKHKVYACEVTHQGLSSPVTKSFNRGEC	–	78.953 °C
